# The other results are listed elsewhere or left out. These are noisy estimates, calculated here from bound and input reads.
# Molecular target: T1, Pho4 (S. cerevisiae) (UniProt P07270)
# T1 sequence: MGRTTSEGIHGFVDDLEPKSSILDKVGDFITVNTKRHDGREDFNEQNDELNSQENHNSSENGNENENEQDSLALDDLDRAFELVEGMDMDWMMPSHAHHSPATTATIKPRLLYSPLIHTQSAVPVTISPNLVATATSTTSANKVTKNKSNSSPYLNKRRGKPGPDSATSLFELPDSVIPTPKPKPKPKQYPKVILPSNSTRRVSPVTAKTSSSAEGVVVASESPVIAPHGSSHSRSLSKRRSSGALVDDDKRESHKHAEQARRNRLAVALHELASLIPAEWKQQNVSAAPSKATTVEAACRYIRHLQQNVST
# Assay: relative binding free energy (BET-seq); higher = weaker binding
# Settings: reference: library average
row,Sequence,relative binding free energy [kJ/mol]
1,TGGGTCACGTGTTTAG,0.502
2,GTTAGCACGTGGTATG,-0.335
3,GTATTCACGTGACGTT,1
4,GGTAACACGTGTTTGG,0.335
5,CGAAACACGTGGGGGT,-0.293
6,ATAGTCACGTGCTTGG,0
7,TGTGTCACGTGTTGGA,0.502
8,ATTGACACGTGTTATG,0.335
9,ACGATCACGTGGTGGG,-0.209
10,AGTGACACGTGACGGT,0.544
11,CTAGGCACGTGTGGAT,-0.377
12,ATTCTCACGTGTTCTG,1.46
13,ATGGACACGTGGTATT,-0.293
14,GTGGCCACGTGCTTTG,-0.209
15,TGTATCACGTGGTCTA,0.0418
16,AGAGTCACGTGGAGAT,-0.0418
17,ATTCGCACGTGCTTGG,-0.209
18,CTGTACACGTGGTGTG,-0.209
19,ATTGTCACGTGGCGTG,0.377
20,CATTGCACGTGTTGAT,0.293
21,TATAGCACGTGGGAGA,-0.669
22,CAGGGCACGTGCCGGG,-0.377
23,TTAAGCACGTGCGGGG,-0.879

row,Sequence,relative binding free energy [kJ/mol]
1,TTGAGCACGTGTAAAT,-0.251
2,GGATTCACGTGTGATT,1.97
3,GTGTGCACGTGCGTGG,0
4,TTGTTCACGTGGCTGT,1.13
5,TAGAGCACGTGGGATT,-0.628
6,GTACTCACGTGGGTTA,0.377
7,GGTGACACGTGGAGGA,0.0837
8,TGTATCACGTGACCGG,0.753
9,TGGATCACGTGCTGAG,0.418
10,AAGGTCACGTGGGTGA,-0.335
11,GGCTTCACGTGATTTT,1.97
12,ATTAGCACGTGTGTAG,0
13,TTACGCACGTGGTAGG,-1.34
14,TGATGCACGTGTTATT,0.126
15,GTGGTCACGTGTTTAG,0.711
16,AGATACACGTGTTTAT,-0.0837
17,TGGAGCACGTGGTTGG,-0.0837
18,TTCTGCACGTGCGTGT,-0.586
19,ATGTGCACGTGGTGTT,-0.544
20,AGTGCCACGTGAGGGG,-0.251
21,CGTGGCACGTGGACAG,-0.544
22,CTGTTCACGTGTAGTT,0.837
23,TAGCGCACGTGTGGAA,-0.0837

row,Sequence,relative binding free energy [kJ/mol]
1,TGTTGCACGTGATATA,-0.0837
2,GGTGGCACGTGATATC,0.126
3,GGGAGCACGTGGGATG,-0.544
4,ATTTTCACGTGCCTTG,0.753
5,TATTTCACGTGGTTAA,1.05
6,TGGTGCACGTGCGGGT,-0.251
7,GTTTCCACGTGGGGTA,-0.335
8,GCGGTCACGTGGAGGT,0.46
9,AGGGACACGTGAGGCA,0.669
10,TGGATCACGTGTCGTT,0.293
11,TAGGACACGTGGTGTT,-0.377
12,TATTGCACGTGCATGT,-0.962
13,GATAACACGTGGTGGA,0
14,TATTTCACGTGTAGGG,1.21
15,TTACGCACGTGAGTTT,0.544
16,AGACGCACGTGGGAGG,-0.753
17,GGGAACACGTGCGTGT,-0.418
18,GGGCTCACGTGGATGT,1.46
19,TTGGACACGTGTGATA,0.377
20,TGTCGCACGTGTTTTG,-0.335
21,TGGGTCACGTGGTATG,0.377
22,TGATTCACGTGCTGGC,1.17
23,GTGATCACGTGATGGC,1.21

row,Sequence,relative binding free energy [kJ/mol]
1,CGCTTCACGTGTGTGA,1.38
2,ACGTGCACGTGGTGGT,-0.837
3,TCTTACACGTGTATTA,0.418
4,TTTGGCACGTGGCTGA,-0.209
5,ATAGGCACGTGAGGCA,0
6,TTGAGCACGTGTCGGA,0.0837
7,GTGGACACGTGGGAGG,0.377
8,ATTGGCACGTGCATCT,-0.586
9,GGGTTCACGTGGGTTC,1.38
10,TATGGCACGTGGGCAG,-1.38
11,TGGTGCACGTGGTGCT,-0.335
12,TTGTACACGTGAAAGG,1.59
13,GTAAGCACGTGGGGTA,-0.628
14,AATTACACGTGTGTAA,-0.126
15,GATCGCACGTGGTGGG,-0.209
16,ACAAGCACGTGTGGTG,-0.544
17,ATATGCACGTGGGTAA,-0.544
18,AGTCGCACGTGTTGGG,-0.377
19,CGTTTCACGTGATAAT,1.21
20,TTTGTCACGTGAAGAG,0.879
21,AGTATCACGTGTTTTT,0.586
22,TCGAGCACGTGTAGTA,0.126
23,AGGTGCACGTGTCATA,-0.46

row,Sequence,relative binding free energy [kJ/mol]
1,AAAAGCACGTGTGGAT,0.0418
2,AGTAACACGTGTGAGT,0.167
3,GTAGTCACGTGGCGAG,0.586
4,GAGGACACGTGGGGGG,-0.0837
5,GTTATCACGTGTCTAG,0.92
6,AGAGTCACGTGGTTGA,0.251
7,TTCGGCACGTGGGGCG,-0.544
8,TGCTTCACGTGTGCGG,0.418
9,GTGGCCACGTGGAGAG,0.418
10,AGACGCACGTGTAGGT,-0.167
11,GTCTTCACGTGTTAGA,1
12,TTATCCACGTGTAGGT,0.126
13,AGGGACACGTGAGGCT,0.293
14,TGTTGCACGTGGCTAT,-0.0837
15,ATGGGCACGTGTGAGG,0.167
16,TTTGACACGTGGCGGG,-0.544
17,TTTCTCACGTGGTAAA,1.17
18,AGCGTCACGTGTTGCG,0.335
19,CGATGCACGTGGGGAG,-0.586
20,TTCTGCACGTGTATGT,-0.544
21,AGTAACACGTGAGGTG,0.962
22,ACGGTCACGTGGCGTT,0.293
23,AATAGCACGTGAATTT,1.26

# — the BET-seq Pho4 binding data (Le et al. 2018)
